Among the data in article PMC5801593 are stoichiometry N values, retold here.

By stoichiometry N is commonly meant the number of molecules, sites or subunits per partner or assembly.

The target of the assay is T1, cysteine desulfurase IscS (E. coli), P0A6B7.
T1 chain: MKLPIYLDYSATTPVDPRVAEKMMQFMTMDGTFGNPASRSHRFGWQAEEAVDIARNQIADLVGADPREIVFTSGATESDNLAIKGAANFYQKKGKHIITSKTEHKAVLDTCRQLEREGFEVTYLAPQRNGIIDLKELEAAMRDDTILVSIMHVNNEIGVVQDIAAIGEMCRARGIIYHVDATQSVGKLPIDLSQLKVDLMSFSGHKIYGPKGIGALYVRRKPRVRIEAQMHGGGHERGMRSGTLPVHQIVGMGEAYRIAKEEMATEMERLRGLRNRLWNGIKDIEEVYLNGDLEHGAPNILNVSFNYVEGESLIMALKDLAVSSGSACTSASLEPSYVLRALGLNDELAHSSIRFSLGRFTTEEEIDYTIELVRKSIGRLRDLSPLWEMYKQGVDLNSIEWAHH
In words: native MS; ESI-MS under non-denaturing conditions; IscS 3 μM in 250 mM ammonium acetate pH 8, IscX at 0-16 IscX/IscS molar ratios, 5 min at room temperature; sequential binding model (DynaFit). To be noted: remark: other sources report otherwise.

B1: cysteine desulfurase IscS, P0A6B7 1-404 (enzyme)
chain: T1 chain
In the case of B1, the stoichiometry N is 2.
